{"source": "PubChem BioAssay AID686970", "about": "(National Center for Advancing Translational Sciences (NCATS), 2013)", "note": "Screen size: about 360,000 compounds; about 6,000 (1.7%) were called active. Inconclusive means that the source gave no clear call. Such entries were picked first, then a sample of the others. The call rests on the fitted dose curve; in most records, active means well fitted cell-killing curve with a large enough effect; inconclusive means small, poorly fitted or top-dose-only effect, or effect the other way; inactive means flat fitted curve, though single readings scatter. No potency is given beside an inconclusive call; the fits are too rough. Potency means the concentration at half of the fitted maximal effect; tags describe the fitted curve by direction and shape."}
{"assay": "qHTS for induction of synthetic lethality in tumor cells producing 2HG: qHTS for the HT-1080-NT fibrosarcoma cell line;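 further: NT is the 2HG producing partner of a matched IDH1 knockdown line; nearly all actives have a fitted effect of over 55% in size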", "conditions": "HT-1080-NT fibrosarcoma viability, CellTiter-Glo ATP luminescence, 48 h; series mostly up to 46.1 µM", "outline": "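Luminescent CellTiter-Glo readout after 48 hours of compound exposure at 37 degrees C defined viability of HT-1080-NT cells. Activity was normalized to DMSO wells and cell-free media wells; concentration-response curves were fitted and assigned curve classes.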"}
{"smiles": "CC(Cc1ccccc1)C(=O)N(C)Cc1cccnc1", "note": "(stereo not drawn)", "Potency": "inconclusive [rising, single point]"}
{"smiles": "Cc1ccc(C(=O)c2cc([N+](=O)[O-])ccc2N2CCCCC2)c(C)c1", "Potency": "inconclusive [cytotoxic, full curve]"}
{"smiles": "Cc1ccc(C(=O)NNC(=O)c2ccccc2-n2cccc2)cc1", "Potency": "inactive"}
{"smiles": "C=CCNC(=O)C1CCN(c2cnccn2)CC1", "Potency": "inconclusive [rising, single point]"}
{"smiles": "CCCCCCSc1ccc([C@H]2N[C@@](CC(C)C)(C(=O)OC)[C@H]3C(=O)N(C)C(=O)[C@@H]23)cc1", "Potency": "inactive"}
{"smiles": "CCc1nc(Nc2ccncc2)c2oc3ccccc3c2n1", "Potency": "inconclusive [cytotoxic, single point]"}
{"smiles": "COc1ccc(-n2c(CN3CCN(c4ccc(F)cc4)CC3)nc3ccc([N+](=O)[O-])cc3c2=O)c(OC)c1", "Potency": "inactive"}
{"smiles": "COc1cc(C#Cc2ccc3cc(CCCO)oc(=O)c3c2)cc(OC)c1", "Potency": "active: 4.61 µM"}
{"smiles": "CCn1c(SCC(=O)Nc2ccc3c(c2)OCO3)nnc1-c1cnccn1", "Potency": "inactive"}
{"smiles": "CCc1ccc2nc(N(CCCN(C)C)C(=O)c3ccc(S(=O)(=O)N(C)C4CCCCC4)cc3)sc2c1", "Potency": "inconclusive [cytotoxic, partial curve]"}
{"smiles": "COc1ccc(/C=C/C(=O)NCc2cn(C)nc2C)cc1COc1ccc(Br)cc1", "Potency": "inactive"}
{"smiles": "C#CCOCCOCCOCCNc1nc(N2CCN(C(=O)CCCCCCCCCCNC(=O)[C@H](CCCCN)n3cc(C[C@@H](C)CC)nn3)CC2)nc(N2CCN(C(=O)CCCCCCCCCCNC(=O)[C@H](CCCN=C(N)N)n3cc(C[C@@H](C)CC)nn3)CC2)n1", "Potency": "inconclusive [cytotoxic, single point]"}
{"smiles": "CCn1c(=O)n(CC)c2cc(N3CCCC3)c(NC(=O)c3ccccc3OC)cc21", "Potency": "inconclusive [cytotoxic, single point]"}
{"smiles": "Cc1cccc(-c2nnc3sc(-c4ccccc4C)nn23)c1", "Potency": "inconclusive [cytotoxic, single point]"}
{"smiles": "CCCS(=O)(=O)c1c(S(=O)(=O)CCC)c2c(C)cccn2c1C(=O)N/N=C/c1cc(O)cc(O)c1", "Potency": "inconclusive [cytotoxic, partial curve, poor fit]"}
{"smiles": "O=c1cc(-c2ccccc2)nc2cc(-c3ccc(F)cc3)[nH]n12", "Potency": "inconclusive [cytotoxic, partial curve]"}
{"smiles": "CC/C(=N\\O)c1c(O)c2c(n(-c3ccccc3)c1=O)CCCC2", "Potency": "inactive"}
{"smiles": "CC1CN(c2ccccn2)C(C)CN1C(=S)Nc1ccccc1", "note": "(stereo not drawn)", "Potency": "inactive"}
